# From PubChem BioAssay AID1963576 (National Center for Advancing Translational Sciences (NCATS), 2024)
# Out of some 46,000 compounds screened, about 60 (0.1%) were called active. Inconclusive results (about 3%) are left out. Calls come from the whole dose curve; as a rule, active = well fitted inhibition curve with a large enough effect; inconclusive = small, poorly fitted or top-dose-only effect; inactive = no such curve, though single readings can be large or run the other way. Some of the results follow.
# Experiment: Primary qHTS assay for Inhibitors of ovarian cancer metastasis using an organotypic tumor microenvironment (TME) model.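 For activity change, negative = inhibition: plate controls were DMSO wells for no effect and tomatine positive control wells for full effect.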 Note: nearly all actives have a fitted effect of over 65% in size.
# Conditions: SKOV3ip1-GFP adhesion/invasion on 3D omental model, fluorescence; series mostly up to 45.8 µM; activity change, negative = inhibition: at the top concentration
# Summary of the method: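 Primary human omental fibroblast/mesothelial 3D culture pre-formed 48 h. SKOV3ip1-GFP cells added with compounds (0.36-46 umol/L), incubated 2 h RT/16 h 37 C, fixed; GFP cells quantified at 488/509 nm.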
SMILES,"activity change, negative = inhibition",outcome
CCN(C(=O)c1c(C)oc2ncnc(N3CCCCC3)c12)c1cc(C)ccc1C,inactive: -1.09%,–
Cc1ccc(C(=O)NCCc2csc(-c3cccc(F)c3)n2)cc1C,inactive: -4.93%,–
CCOC(=O)c1ccccc1NC(=O)CSc1ccc(-c2sc(C)nc2C)nn1,inactive: -6.58%,–
COc1ccc(-c2noc(CN(C(=O)c3ccc(C)cc3C)C(C)C)n2)cc1,inactive: 38.8%,–
Cc1cc(CS(=O)(=O)c2ccccc2)cc(OCc2ccc(CN3CCC[C@H]3CO)cc2)c1,inactive: 28.6%,–
Cc1ccc(C)c(NC(=O)c2cnc(N3CCCC3)nc2C)c1,inactive: -1.59%,–
O=C(OCc1cc(=O)n2nc(C3CC3)sc2n1)c1cccc(NC(=O)c2ccccc2Cl)c1,inactive: 3.09%,–
COc1ccc(-c2cn3c(n2)sc2cc(C(=O)NCCc4ccccc4)ccc23)cc1,inactive: -4.7%,–
COc1ccccc1/C=C/c1nc(C#N)c(NCc2ccccc2)o1,–,inactive
CCOc1ccccc1C(=O)Nc1cccc(-c2nc3ccccc3s2)c1,inactive: -9.99%,–
CCC(=O)N1CCCc2cc(S(=O)(=O)N3CCC(C(=O)NC4CCC(C)CC4)CC3)ccc21 (stereo not given),inactive: -15.6%,–
Cc1cc(C)cc(NC(=O)NCc2noc3ccccc23)c1,inactive: -0.962%,–
O=C(Cc1ccc(Cl)cc1)NC1CC(=O)N(c2ccc3c(c2)OCCO3)C1 (stereo not given),inactive: 28%,–
CCc1ccccc1N(CC)C(=O)c1cc2c(s1)-c1ccccc1SC2,inactive: 12.1%,–
Cc1cccc(CNC(=O)C2CCN(c3nn4cc(-c5ccc(F)cc5)nc4s3)CC2)c1,inactive: -13%,–
COc1ccc(-n2ncc(C(=O)NCc3cccs3)c2C2CCN(C(=O)OC(C)(C)C)CC2)cc1,inactive: 27.1%,–
CCC(Sc1nnc(-c2ccc(F)cc2)c(-c2ccc(F)cc2)n1)C(=O)NC1CCCC1 (stereo not given),inactive: -6.68%,–
O=S(=O)(c1ccccc1)n1nc(-c2ccco2)nc1NCc1ccccc1,inactive: 1.72%,–
CCc1nnc(NC(=O)c2nc(SCc3cccc(C)c3)ncc2Cl)s1,inactive: 0.82%,–
CC1CCN(C(=O)Cn2cc(SCC(=O)NCc3ccccc3)c3ccccc32)CC1,inactive: 0.681%,–
CCOc1ccc(C(c2c(O)cc(C)n(Cc3ccco3)c2=O)N2CCN(C)CC2)cc1 (stereo not given),inactive: 5.64%,–
CCOc1ccc(-c2cn3c(n2)sc2cc(C(=O)NC(C)C45CC6CC(CC(C6)C4)C5)ccc23)cc1 (stereo not given),–,inactive
COc1cccc(N2CC(NC(=O)/C=C\c3ccccc3)CC2=O)c1 (stereo not given),–,inactive
CCC(=O)N1CCc2cc(S(=O)(=O)CCC(=O)Nc3cc(Cl)ccc3OC)ccc21,inactive: 1.84%,–

SMILES,"activity change, negative = inhibition",outcome
O=C(CSc1nc2c([nH]c3ccccc32)c(=O)n1-c1ccccc1F)Nc1cccc(Cl)c1,inactive: -8.75%,–
Cc1ccc(NC(=O)CSCc2cc(=O)c3ccccc3[nH]2)c(C)c1,inactive: 8.72%,–
Cc1ccccc1CNCCCSc1nnnn1C,inactive: -0.392%,–
COc1ccc(C2C(C(=O)Nc3ccccc3)=C(C)Nc3nc(-c4ccc(Cl)cc4)nn32)cc1 (stereo not given),–,inactive
CCOc1ccc(CNC(=O)c2cc3c(=O)oc4ccc(C)cc4c3s2)cc1,–,inactive
COc1ccc(CNC(=O)C2CCN(S(=O)(=O)c3cccc(-c4noc(C)n4)c3)CC2)cc1,inactive: -3.96%,–
Cc1cccc(Cn2c(CN3CCC(C(=O)NC(C)C)CC3)cc3ccccc32)c1,inactive: -1.76%,–
COc1ccc(-c2cn3c(n2)sc2cc(C(=O)NCCCN4CCN(C)CC4)ccc23)cc1,inactive: -26.5%,–
Cc1ccc(-n2c(=O)c3c(C)c(C(=O)N(C)C)sc3n(Cc3ccccc3C)c2=O)cc1C,–,inactive
COc1ccc(Cn2c(CO)cnc2SCc2ccccc2)cc1,inactive: 0.119%,–
CCCOc1ccc(C2C(=O)N(C3CCCCC3)CC(=O)N2C2CCCCC2)cc1OC (stereo not given),–,inactive
O=C(COCc1cc(-c2ccc(F)cc2)on1)Nc1cccc(C(F)(F)F)c1,inactive: 2.04%,–
CCN(CCCNC(=O)Cn1ncc2c([nH]c3ccccc32)c1=O)c1cccc(C)c1,inactive: 8.08%,–
COC(=O)c1scc(-c2ccc(C)cc2)c1S(=O)(=O)N1CCN(c2cccc(Cl)c2)CC1,–,inactive
CCc1ccccc1NC(=O)Cn1c(=O)n(-c2ccc(C)cc2)c(=O)c2cc(OC)c(OC)cc21,–,inactive
CCCCN(CC)C(=O)CSc1nc2c(sc3ccccc32)c(=O)n1CCc1ccccc1,–,inactive
CN(C)C(=O)c1ccc(S(=O)(=O)NCc2ccc(Cl)cc2)s1,inactive: -38.5%,–
CCc1ccccc1Nc1sc(C(=O)c2ccccc2)c(N)c1S(=O)(=O)c1ccccc1,inactive: 2.05%,–
Cc1c(C(=O)Nc2c(F)cccc2F)sc2ncn(Cc3ccccc3F)c(=O)c12,inactive: -4.13%,–
CC(=O)N1CCc2c(sc3c2c(=O)n(-c2ccccc2C)c(=O)n3CC(=O)Nc2ccccc2)C1,inactive: 0.681%,–
Cc1ccc(S(=O)(=O)c2nc(-c3cccs3)oc2N2CCC(C)CC2)cc1,–,inactive
Cn1c(=O)sc2cc(NS(=O)(=O)c3ccc(C(C)(C)C)cc3)ccc21,inactive: 2.73%,–
Cc1ccc2c(c1)N(C(=O)N1CCC(C(=O)Nc3cccc(F)c3)CC1)CCO2,inactive: 3.05%,–
O=S(=O)(NCCc1csc2nc(-c3ccc(Cl)cc3)nn12)c1cccs1,inactive: -12.3%,–

SMILES,"activity change, negative = inhibition",outcome
O=C1CN(C(=O)c2ccc(S(=O)(=O)N3CCCC3)cc2)C(c2ccc(F)cc2)c2cc(Br)ccc2N1 (stereo not given),inactive: -11%,–
COC(=O)c1ccccc1NC(=O)NCc1ccc2c(c1)CCN2C(=O)c1ccccc1,inactive: 4.97%,–
CCC1CN(S(=O)(=O)c2cc(-c3cc(C)no3)ccc2OC)c2cc(Cl)ccc2O1 (stereo not given),inactive: -14.8%,–
CN(Cc1ccccc1)c1nc2c(S(=O)(=O)c3cccc(Cl)c3)nnn2c2ccsc12,inactive: 6.89%,–
CCCCNC(=O)CSc1nc2cc3c(cc2c(=O)n1CCCC(=O)NCc1ccc(OC)cc1)OCO3,–,inactive
CC(C)CC(=O)NC1CC(=O)N(c2ccc3c(c2)OCCO3)C1 (stereo not given),–,inactive
COc1cc2nccc(Oc3ccc(NC(=O)C4(C(=O)Nc5ccc(F)cc5)CC4)cc3)c2cc1OC,inactive: -5.82%,–
CCOC(=O)c1ccc2c(c1)N(Cc1cc(C)ccc1C)C(=O)c1ccccc1S2(=O)=O,inactive: 2.07%,–
Cc1cc(C)cc(NC(=O)[C@H]2O[C@@H]3OC(C)(C)O[C@@H]3[C@H]3OC(C)(C)O[C@H]32)c1,inactive: -13.2%,–
O=C(COc1ccc(Cl)cc1)OCc1cc(=O)n2nc(C3CCCCC3)sc2n1,–,inactive
Cc1ccc2c(c1)N(C(=O)CCC(=O)NCc1ccccc1F)CC(C)O2 (stereo not given),inactive: -10.5%,–
COc1ccccc1Nc1cc(C(=O)NCCCN(C)C2CCCCC2)c2ccccc2n1,inactive: -18.2%,–
COc1cc(Nc2nc3c(S(=O)(=O)c4ccccc4)nnn3c3ccc(Cl)cc23)cc(OC)c1,inactive: 3.39%,–
CCc1ccccc1NC(=O)CN(c1cc(C(F)(F)F)ccc1Cl)S(=O)(=O)c1ccccc1,inactive: -16.3%,–
O=c1c2oc3ccccc3c2n(Cc2ccccc2Cl)c(=O)n1Cc1ccc2c(c1)OCO2,inactive: 4.89%,–
Clc1cccc(Nc2ncnc3c2nc2n3CCCCC2)c1,inactive: 5.6%,–
Cn1c(=O)oc2cc(S(=O)(=O)CCC(=O)NCc3ccc(Cl)cc3)ccc21,inactive: -28.4%,–
Cc1ccsc1CN(Cc1ccco1)c1cnc(S(C)(=O)=O)nc1C(=O)Nc1ccc(Cl)cc1,inactive: -1.84%,–
Cc1ccccc1C(=O)N1CCC(c2nc(-c3ccc(S(=O)(=O)N4CCCC4)cc3)no2)CC1,inactive: -4.67%,–
COc1ccc(Nc2nc3ccccc3n3c(N)nnc23)cc1,inactive: 4.05%,–
Cc1cccc(C(=O)Nc2ccc(OCc3cc(=O)n4ccc(C)cc4n3)cc2)c1,–,inactive
COc1ccc(-c2cn3nc(SCC(=O)Nc4cccc(C)c4C)ccc3n2)cc1,inactive: -5.05%,–
CC1CCN(C(=O)CN2CC(C)Sc3ccccc32)CC1 (stereo not given),–,inactive
Cc1ccc(C(c2sc3nc(-c4ccco4)nn3c2O)N2CCN(c3ccc(F)cc3)CC2)cc1 (stereo not given),inactive: 6.91%,–

SMILES,"activity change, negative = inhibition",outcome
Cc1oc(-c2cccc(Cl)c2)nc1Cn1c(SCc2ccc(F)cc2)nc2cccnc21,inactive: -9.31%,–
COc1cc2c(C(=O)N(C)c3cccc(C(F)(F)F)c3)cn(CC(C)C)c(=O)c2cc1OC,inactive: 2.46%,–
Cc1cccc(N2CCn3c2nc2c3c(=O)n(CCCc3ccccc3)c(=O)n2C)c1,–,inactive
COc1cc2c(cc1OC)C(COc1cc(C)cc(C)c1)N(C(=O)C(C)(C)C)CC2 (stereo not given),inactive: -2.27%,–
CCC(Nc1ccc(-c2nc(-c3ccccn3)no2)cc1[N+](=O)[O-])c1ccccc1 (stereo not given),inactive: 8.6%,–
CCCCN(C)C(=O)CCC(=O)NNc1nc2ccccc2c2nc(C)nn12,inactive: 3.69%,–
Cc1cc2n(n1)CCCN2C(=O)Nc1ccccc1C(F)(F)F,inactive: 9.9%,–
CCc1ccc(S(=O)(=O)c2nnn3c2nc(N(CC)Cc2ccccc2)c2cc(Cl)ccc23)cc1,inactive: 0.475%,–
Cc1ccc(C2CC(=O)Nc3c2c(C)nn3-c2nc(C)cc(C)n2)c(C)c1 (stereo not given),inactive: 4.46%,–
COc1cc(CN(C(=O)COc2ccccc2)c2ccccn2)cc(OC)c1OC,inactive: 3.82%,–
CCC(C)OC(=O)/C(C#N)=C/c1ccc(-c2ccc(Br)cc2)o1 (stereo not given),inactive: -23.8%,–
COc1cccc(NC(=O)C2CCCN(c3ncnc4onc(C)c34)C2)c1 (stereo not given),inactive: 7.06%,–
COC(=O)CN1C(=O)CSc2ccc(S(=O)(=O)Nc3ccc(C)c(Cl)c3)cc21,–,inactive
CCC1=C(C)CN(C(=O)NCCc2ccc(S(=O)(=O)NC(=O)NC3CCC(C)CC3)cc2)C1=O (stereo not given),inactive: 17.8%,–
CCc1ccc(NC(=O)c2cc(=O)c3ccc(C)c(C)c3o2)cc1,inactive: -18.5%,–
COc1ccc(NC(=O)CNC(=O)Cn2ccc3ccccc3c2=O)cc1OC,inactive: 5.85%,–
CNC(=O)c1cnc2sc(N3CCC(C)CC3)nn2c1=O,inactive: 2.78%,–
CCCCCOc1ccc(/C=C/C(=O)Nc2sc3c(c2C(=O)OCC)CCC3)cc1OC,inactive: 1.11%,–
CNC(=O)c1cc(COc2nnc(Nc3ccc(Cl)cc3)c3ccoc23)ccn1,inactive: -9.55%,–
O=C(Nc1ccccc1C(=O)N1CCCCC1)c1nsc2ccccc12,inactive: 5.36%,–
Cc1cccc(N2CCN(CCCNc3ncnc4onc(-c5ccc(F)cc5)c34)CC2C)c1 (stereo not given),inactive: 0.478%,–
O=C(Nc1ccc(F)c(F)c1)c1cc(S(=O)(=O)NC2CCCC2)ccc1F,inactive: 9.69%,–
CCc1ccc2oc(-c3cc(NC(=O)c4cccs4)ccc3Cl)nc2c1,–,inactive
